The campaign covered roughly 310,000 compounds. About 14,000 (4.5%) showed an effect of 50% or more. The effect is printed as a negative number. This is one part of the list.
Target: human ether-à-go-go-related gene (hERG) potassium channel (human, UniProt Q12809)
Test: primary screen, population patch clamp on CHO cells stably expressing hERG
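Further: peak tail current of the secondary pulse compared with the same well before compound.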

Chain of human ether-à-go-go-related gene (hERG) potassium channel (Q12809 whole entry, looked up): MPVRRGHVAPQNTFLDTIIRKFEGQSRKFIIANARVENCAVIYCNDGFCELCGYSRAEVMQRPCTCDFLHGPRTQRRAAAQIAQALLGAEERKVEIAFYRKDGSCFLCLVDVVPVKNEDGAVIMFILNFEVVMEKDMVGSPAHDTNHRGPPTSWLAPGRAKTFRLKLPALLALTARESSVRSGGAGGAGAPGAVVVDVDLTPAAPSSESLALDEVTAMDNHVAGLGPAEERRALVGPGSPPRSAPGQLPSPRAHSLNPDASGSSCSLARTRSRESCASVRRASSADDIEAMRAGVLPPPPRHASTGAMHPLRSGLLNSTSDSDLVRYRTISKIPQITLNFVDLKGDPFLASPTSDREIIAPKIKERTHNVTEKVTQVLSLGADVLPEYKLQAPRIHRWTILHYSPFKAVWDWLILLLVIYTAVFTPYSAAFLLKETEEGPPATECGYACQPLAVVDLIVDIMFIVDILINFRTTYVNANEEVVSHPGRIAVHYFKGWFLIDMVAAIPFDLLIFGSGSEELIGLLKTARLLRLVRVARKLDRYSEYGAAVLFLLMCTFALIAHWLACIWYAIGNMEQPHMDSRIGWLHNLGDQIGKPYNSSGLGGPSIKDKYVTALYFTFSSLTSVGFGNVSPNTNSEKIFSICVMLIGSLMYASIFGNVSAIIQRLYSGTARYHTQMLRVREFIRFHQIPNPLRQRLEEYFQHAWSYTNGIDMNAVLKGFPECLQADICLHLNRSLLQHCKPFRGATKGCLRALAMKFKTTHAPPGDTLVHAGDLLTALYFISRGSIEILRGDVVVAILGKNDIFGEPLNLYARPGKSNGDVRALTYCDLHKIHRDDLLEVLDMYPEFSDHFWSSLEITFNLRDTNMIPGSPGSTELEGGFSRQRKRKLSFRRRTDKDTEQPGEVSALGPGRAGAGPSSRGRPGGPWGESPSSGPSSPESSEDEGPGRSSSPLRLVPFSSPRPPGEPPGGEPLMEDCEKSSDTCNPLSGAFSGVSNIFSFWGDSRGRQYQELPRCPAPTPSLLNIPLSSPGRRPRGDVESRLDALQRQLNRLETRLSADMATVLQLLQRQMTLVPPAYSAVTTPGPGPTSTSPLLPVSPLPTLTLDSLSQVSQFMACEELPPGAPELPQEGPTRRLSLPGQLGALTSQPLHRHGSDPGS

Row | Compound | hERG current change (%, negative = inhibition) at 10uM
1 | COC(=O)C1=C(c2ccc(F)cc2OCc2ccccc2)C[C@@H]2CC[C@H]1N2C(=O)NCCOc1ccccc1Cl | -0.754%
2 | CCOC(=O)c1ccc(S(=O)(=O)N2CCNCC2)cc1 | -16.6%
3 | CCOC(=O)CSc1nc2ccc(C)cc2[nH]1.Cl | 2.21%
4 | Cn1nc(C(F)(F)F)c(-c2ccc(F)cc2)c1NC(=O)c1cccnc1 | 4.17%
5 | O=C(NCCN1C(=O)S/C(=C\c2ccc(Cl)cc2)C1=O)c1ccc(F)c(S(=O)(=O)N2CCOCC2)c1 | -12.3%
6 | CS(=O)(=O)N(CCc1ccccc1)CC(=O)NCc1ccco1 | -3.21%
7 | CC(SC(=S)N1CCCC1)C(=O)O (stereo not drawn) | 17%
8 | O=C(NC(=S)NCCC1=CCCCC1)c1ccccc1Br | 9.45%
9 | COc1ccc(OC)c(Nc2cc(C)nc3ccc(C)cc23)c1 | -68.6%
10 | COCCN(C(=O)COC(=O)c1c(NC(C)=O)sc(C)c1C)c1c(N)n(Cc2ccccc2)c(=O)[nH]c1=O | -31.7%
11 | COc1cccc(C2CC(=O)N3CN(c4ccccc4F)CSC3=C2C#N)c1 (stereo not drawn) | 8.76%
12 | CC(C)N1CCNCC1.Cl | 30.1%
13 | COc1ccccc1-n1c(O)c(/C=C2\C=Nc3ccccc32)c(=O)[nH]c1=O | 13%
14 | O=C(CN1c2ccccc2Sc2ccccc21)N/N=C/c1ccccc1 | -8.41%
15 | COc1ccc(CCC(=O)NCCS(=O)(=O)N2CCN(c3ccc(F)cc3)CC2)cc1 | -58.8%
16 | Cc1ccc2nc(SCC3CCCCO3)[nH]c2c1 (stereo not drawn) | -11.6%
17 | OC(CN1CCN(c2cccc(Cl)c2)CC1)c1ccc(F)cc1 (stereo not drawn) | -47.2%
18 | CCOC(=O)COc1ccc(C(c2c(C)[nH][nH]c2=O)c2c(C)[nH][nH]c2=O)cc1 | 10.4%
19 | CS(=O)(=O)Oc1ccc(/C=C2\C(=N)N3N=C(CC(=O)N4CCOCC4)SC3=NC2=O)cc1Cl | -2.27%
20 | O=C(CSc1nnc(NC(=O)c2ccccc2F)s1)NCc1ccco1 | 17.6%
21 | COc1ccc(NC(=S)N2CCC(NC(=O)c3ccco3)CC2)cc1 | -6.59%
22 | CC(=O)Nc1nnc(-c2ccccn2)o1 | 24.6%
23 | Clc1ccc(CSc2ccc(-c3ccccn3)nn2)cc1 | -2.04%

Row | Compound | hERG current change (%, negative = inhibition) at 10uM
24 | CN(CC(=O)NC(=O)NC1CCCCC1)c1ccccc1 | 10.2%
25 | Oc1cc(Cc2ccccc2)cnc1CN1CCCCC1 | -5.73%
26 | Clc1cc(CSc2ccccc2)nc(-c2ccccc2)n1 | 3.13%
27 | CCOC(=O)C1=C(COc2ccc(F)cc2Cl)NC(=O)NC1c1cc(C)ccc1C (stereo not drawn) | 10.6%
28 | CCC(=O)n1nc(-c2cccnc2)nc1NCc1ccc(OC)cc1 | -8.51%
29 | NC(=O)COC(=O)CSc1cccc2cccc(Cl)c12 | 14.8%
30 | COC(=O)c1ccc2[nH]ccc2c1 | -2.6%
31 | CC(Oc1ccccc1)c1ccnc2nc(/N=C/N(C)C)nn12 (stereo not drawn) | 13.7%
32 | CCOC(=O)C1CCCN(C(=O)COc2ccc(N(C)S(=O)(=O)c3ccc(C)cc3)cc2)C1 (stereo not drawn) | -56.8%
33 | O=C(NCCc1ccccc1)c1cc(S(=O)(=O)N2CCOCC2)ccc1F | -15.5%
34 | COc1cc(C(=O)NCCOc2ccc(F)cc2)c(Br)c(OC)c1OC | 3.42%
35 | O=C(Nc1ccccc1)c1ccc[nH]1 | 5%
36 | COCCn1c(C)cc(C(=O)CSc2nnc3ccccn23)c1C | 10.3%
37 | Cc1cccc(Oc2ccc(NC(=O)c3ccccc3C(=O)O)cc2)c1 | -4.69%
38 | COc1ccccc1NC(=S)N1C2CCC1CC(NC(=O)NC13CC4CC(CC(C4)C1)C3)C2 (stereo not drawn) | -2.49%
39 | O=C1CCCCC1c1cccc2ccccc12 (stereo not drawn) | -0.229%
40 | CCOCCCNC(=O)c1cc(-c2ccc(Br)s2)nc2ccccc12 | 15%
41 | CCC(C(=O)Nc1nccs1)c1ccccc1 (stereo not drawn) | 9.98%
42 | Cc1ccc[n+](CC(O)Cn2c3ccccc3c3ccccc32)c1.[O-][Cl+3]([O-])([O-])[O-] (stereo not drawn) | 9.51%
43 | S=C(NCCc1ccccn1)NC1CC2CCC1C2 (stereo not drawn) | 16%
44 | COc1cc2[nH]c(=O)n(Cc3ccc(C(=O)NCCCN4CCC(C)CC4)cc3)c(=O)c2cc1OC | 5.9%
45 | O=C(Cn1c(C(=O)OCCO)cc2ccccc21)c1ccccc1 | 10.3%

Reference: publication PMC4336329 (PLoS ONE, 2015)
